In the supplement of paper PMC3334620:
In all, about 33,000 sequences were measured (“E-score (-0.5 to 0.5)”: median about -0.016, highest 2% from about 0.31 on). The list shows a part of the results.

Target: Cst6 (UniProt P40535)
Experiment: PBM E-score (8-mer binding enrichment) (E-score (-0.5 to 0.5)); higher = stronger / more preferred TF binding; most listed sequences are background and not binding sites
Settings: protein concentration: 200 nM; construct: GST-DNA-binding domain
Method in brief: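 Full-length yeast transcription factors or their DNA-binding domains, GST-tagged and expressed with PURExpress, were applied at about 100-200 nM to universal all-10-mer Agilent arrays. These arrays had been made double-stranded by primer extension on fresh or once-stripped slides. Detection used fluorescent anti-GST, normalisation used masliner, and E-scores for ungapped eight-base words pooled with reverse complements came from the Universal PBM Analysis Suite.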

Going from CTCAGGTA to ACGGCTCC, the “PBM E-score” value rises from -0.0602 to 0.256.

First: ATTAATAC
Second: GAGGCCTC
The “PBM E-score” value of the first is higher: 0.272 for the first, -0.372 for the second.

Going from ACAACGAC to CCTAGGCA, the “PBM E-score” value falls from 0.0723 to -0.14.

Compared with ACGTTAGC, ATGTACTG is lower in “PBM E-score” value: 0.294 for the first, -0.0589 for the second.

Compared with CAGTAAAC, ACGCAGGC is lower in “PBM E-score” value: 0.049 for the first, -0.112 for the second.

Compared with AAGTCCTG, TAAGGTGA is higher in “PBM E-score” value: -0.238 for the first, 0.22 for the second.

First: CGAAGTAG
Second: CTTTACGA
The “PBM E-score” value of the first is lower: -0.0702 for the first, 0.0649 for the second.

Going from CGGTACCA to ATATTAAA, the “PBM E-score” value rises from -0.256 to 0.355.

First: AAAAAGGA
Second: TGTTAAAA
The “PBM E-score” value of the first is lower: 0.00304 for the first, 0.211 for the second.

First: CCTGAAGC
Second: GAACACCC
The “PBM E-score” value of the first is lower: -0.283 for the first, -0.245 for the second.

Compared with GCGACAGA, TTGTACAA is higher in “PBM E-score” value: -0.0549 for the first, 0.107 for the second.

Compared with AGGTAAAA, GCAGCTGA is lower in “PBM E-score” value: 0.171 for the first, -0.0324 for the second.

First: AATCTTTG
Second: CTACAAAA
The “PBM E-score” value of the first is lower: 0.117 for the first, 0.214 for the second.

Going from TGCTCCCA to GGGTGCCA, the “PBM E-score” value rises from -0.243 to -0.137.

Compared with CTAGGTCC, AGCCACCG is higher in “PBM E-score” value: -0.233 for the first, -0.0861 for the second.

First: CTAGATAC
Second: AATCGGAG
The “PBM E-score” value of the first is higher: 0.0288 for the first, -0.108 for the second.

First: CAAGACAA
Second: AAAACTAT
The “PBM E-score” value of the first is lower: 0.0519 for the first, 0.131 for the second.

Going from AGTAAAGA to AATTTATC, the “PBM E-score” value rises from 0.171 to 0.312.

Going from ACCTGGAC to GAAAGGCC, the “PBM E-score” value rises from -0.373 to 0.0943.

Compared with GGGAACCA, GGGGACTA is lower in “PBM E-score” value: -0.157 for the first, -0.369 for the second.

Compared with CTGGTACA, CAAAACAG is higher in “PBM E-score” value: -0.0868 for the first, 0.0442 for the second.

Going from ATAGCAGA to AAGCCGCA, the “PBM E-score” value rises from 0.0549 to 0.245.

Compared with AGCCAAGC, GCTCTCAA is higher in “PBM E-score” value: -0.294 for the first, -0.057 for the second.

Going from GATTCCCC to AACTGTTG, the “PBM E-score” value rises from -0.24 to -0.138.

Going from GAAGTCGA to ATGGTTTG, the “PBM E-score” value falls from 0.0342 to -0.0135.

First: AGCCGTCC
Second: ACATCCAC
The “PBM E-score” value of the first is lower: 0.0267 for the first, 0.141 for the second.

First: AAAAATAG
Second: AATGGTAC
The “PBM E-score” value of the first is higher: 0.118 for the first, -0.0975 for the second.

Compared with GGTGCTGA, GAGTGTTA is higher in “PBM E-score” value: -0.228 for the first, 0.071 for the second.

Compared with ACTTTGAT, AAAGTACA is higher in “PBM E-score” value: 0.188 for the first, 0.208 for the second.

Going from CAACCTTC to AGTAAGCA, the “PBM E-score” value rises from -0.0925 to -0.013.

Going from GCTTTTCC to TCTCGCAA, the “PBM E-score” value rises from -0.14 to -0.112.

Going from GAGCATCA to TCTGATCA, the “PBM E-score” value falls from -0.00777 to -0.00903.

Going from GAGGGCTA to AGCTCCTA, the “PBM E-score” value falls from -0.27 to -0.364.

Compared with CTATGCGC, CTTGTAGC is higher in “PBM E-score” value: -0.00647 for the first, 0.0259 for the second.

Going from ACGCGGAC to GCTGGTAC, the “PBM E-score” value falls from -0.0478 to -0.221.

First: CCACGCCA
Second: GTCGTAGA
The “PBM E-score” value of the first is lower: -0.00586 for the first, 0.0253 for the second.

Compared with AGCCCCCT, CATCCAGA is higher in “PBM E-score” value: -0.303 for the first, -0.102 for the second.

First: CCACACAA
Second: CGTGGTGA
The “PBM E-score” value of the first is lower: -0.0352 for the first, 0.03 for the second.

First: ACTAGCAA
Second: CGGCGCGA
The “PBM E-score” value of the first is lower: 0.0267 for the first, 0.35 for the second.

Compared with AGCCCACT, ACCCGATA is higher in “PBM E-score” value: -0.227 for the first, -0.138 for the second.

Compared with ACCGGATG, AGGATGAT is higher in “PBM E-score” value: -0.0495 for the first, 0.245 for the second.

Going from CGACGCGA to GGCATCCC, the “PBM E-score” value falls from -0.0414 to -0.269.

Compared with GGCTCAGA, CCGGGTCG is lower in “PBM E-score” value: -0.0954 for the first, -0.229 for the second.

Going from CGGCAAGA to ACGGTGCT, the “PBM E-score” value falls from -0.013 to -0.0965.

First: GGCACTAA
Second: CATCATAG
The “PBM E-score” value of the first is lower: 0.133 for the first, 0.326 for the second.

Compared with CCTACCAC, ATAGCGGG is higher in “PBM E-score” value: -0.258 for the first, -0.176 for the second.

Compared with GGACACAA, CAGTCGCG is lower in “PBM E-score” value: 0.173 for the first, -0.25 for the second.

Compared with CACGTTTC, ATCACTGG is higher in “PBM E-score” value: -0.0321 for the first, 0.00911 for the second.

First: ATGCTCAA
Second: ATCTTGCG
The “PBM E-score” value of the first is lower: -0.0103 for the first, 0.0154 for the second.

Going from ACGCAGTA to GGATGTCA, the “PBM E-score” value rises from 0.026 to 0.277.

First: CTCTGCTA
Second: CCGTGAGA
The “PBM E-score” value of the first is higher: -0.0841 for the first, -0.235 for the second.

First: GGAGAGAC
Second: AGCTTGTA
The “PBM E-score” value of the first is lower: -0.228 for the first, -0.00081 for the second.

Going from ACTTAGAC to GCCCTACA, the “PBM E-score” value falls from 0.136 to -0.228.

Going from ATAAAGAT to ACTTAAAT, the “PBM E-score” value falls from 0.192 to 0.0864.

Compared with ACTGTAAG, TATAGTGA is higher in “PBM E-score” value: 0.0881 for the first, 0.176 for the second.

First: TCGTAGCA
Second: GTGTTAAC
The “PBM E-score” value of the first is higher: 0.112 for the first, 0.00586 for the second.

First: CGCCCACC
Second: ACTTAGTC
The “PBM E-score” value of the first is higher: -0.0447 for the first, -0.112 for the second.

First: TCTAGCAA
Second: CGTCCTTC
The “PBM E-score” value of the first is higher: 0.0361 for the first, -0.0877 for the second.

First: AGAAAGGC
Second: CGTATAGA
The “PBM E-score” value of the first is lower: 0.105 for the first, 0.146 for the second.

Compared with GCATCTAA, CACGGAAC is lower in “PBM E-score” value: 0.134 for the first, 0.118 for the second.

Going from ATTCCGAA to CCCTATCG, the “PBM E-score” value falls from 0.128 to -0.285.

Compared with ATGGGAAC, AAGAAAAT is higher in “PBM E-score” value: -0.143 for the first, 0.272 for the second.

First: CAGGTACG
Second: CGCAATCA
The “PBM E-score” value of the first is lower: -0.219 for the first, 0.191 for the second.

Compared with CTATAAGC, GAGACATC is lower in “PBM E-score” value: -0.0678 for the first, -0.254 for the second.

Going from GACTACTA to CATGCGGG, the “PBM E-score” value falls from 0.0595 to -0.0735.

Going from CAAGCGTC to AGGCGGGA, the “PBM E-score” value falls from 0.0922 to -0.24.

First: ATGGCTAC
Second: GCCTGCGC
The “PBM E-score” value of the first is higher: 0.0569 for the first, -0.223 for the second.

First: ACACCGGA
Second: GACGTAAA
The “PBM E-score” value of the first is lower: -0.201 for the first, 0.374 for the second.

First: GTAACCAA
Second: ACTTTCAA
The “PBM E-score” value of the first is lower: 0.00921 for the first, 0.0592 for the second.

First: GATAAGAC
Second: CAGTGAAC
The “PBM E-score” value of the first is lower: -0.0263 for the first, 0.0872 for the second.

Compared with GCGCGGAA, CAGGTGTA is lower in “PBM E-score” value: 0.0874 for the first, 0.0748 for the second.

First: GCTGCGTA
Second: GTCCAATA
The “PBM E-score” value of the first is higher: -0.0643 for the first, -0.112 for the second.

Going from GAAGGGCC to GAGACGCA, the “PBM E-score” value rises from -0.173 to -0.00906.

Going from TCAAGCAA to AGCCGACG, the “PBM E-score” value falls from -0.0619 to -0.112.

Compared with CTTCGGGA, CCGCGTGA is higher in “PBM E-score” value: -0.199 for the first, 0.197 for the second.
